The other results are listed elsewhere or left out. At the low end of the ranking, values are background and their order means little.
What follows are sequences tested on T1, GST-NbGlk1(82-244) (assay: protein-binding microarray). Details: NbGlk1 is a Golden2-like transcription factor of Nicotiana benthamiana; high values mean tight binding; most listed sequences are background and not binding sites; double strand, one strand shown.
T1 sequence: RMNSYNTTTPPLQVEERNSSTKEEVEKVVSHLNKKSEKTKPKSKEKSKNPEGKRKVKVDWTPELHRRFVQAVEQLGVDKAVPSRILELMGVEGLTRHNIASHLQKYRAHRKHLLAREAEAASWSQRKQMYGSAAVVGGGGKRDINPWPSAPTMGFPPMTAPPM
With ATAGCCGG the binding signal was -0.221 E-score. ATATCACG showed a binding signal of 0.347 E-score. AGGAGAGA was tested, and the binding signal was -0.0212 E-score. With ACTGTTCT the binding signal was -0.0658 E-score. ACCCCACT showed a binding signal of -0.155 E-score. With ATTTGAGC the binding signal was 0.0875 E-score. Sequence ATACTCTA has a binding signal of 0.228 E-score. With ACAGCTCC the binding signal was -0.126 E-score. AGCCCCGG was tested, and the binding signal was -0.301 E-score. For AGGCTTAG, the binding signal was -0.0742 E-score. Work on ATCAGCCC yielded a binding signal of 0.0363 E-score. For ATTCATGA, the binding signal was 0.0306 E-score. ACGGATTC gave a binding signal of 0.405 E-score. Work on AGAACACC yielded a binding signal of -0.237 E-score. In the case of ACACCGGT, the binding signal was -0.133 E-score. AGTCACAA gave a binding signal of -0.0197 E-score. Sequence CAACCTAA has a binding signal of -0.0796 E-score. Sequence ATCGCAAA has a binding signal of 0.234 E-score. With AGCAATTC the binding signal was 0.094 E-score. ATAGCTCC gave a binding signal of -0.229 E-score. With AGCTCTAA the binding signal was -0.115 E-score. CAATTCGC gave a binding signal of 0.0698 E-score. Sequence ACGATGGG has a binding signal of 0.0351 E-score. Sequence ATCTGTTC has a binding signal of 0.214 E-score. ACCAACTA gave a binding signal of -0.0676 E-score. AGTTCGGG was tested, and the binding signal was -0.164 E-score. Sequence AGAGCTCT has a binding signal of -0.229 E-score. Sequence ATATCAAC has a binding signal of 0.287 E-score. In the case of AATAGCCC, the binding signal was -0.0536 E-score. ATGAGGAA was tested, and the binding signal was -0.0357 E-score. In the case of ACATTGCG, the binding signal was 0.0274 E-score. With CAATCGGG the binding signal was 0.14 E-score. Sequence AGTCCGAT has a binding signal of -0.0133 E-score. AGAAAGCC was tested, and the binding signal was -0.187 E-score. With ACTAGACG the binding signal was -0.154 E-score. AACATTGC showed a binding signal of 0.0366 E-score. AGATGATA gave a binding signal of 0.182 E-score. CACAAAAC gave a binding signal of 0.0651 E-score. Work on AGCCGAAC yielded a binding signal of -0.14 E-score. Work on ACGGTTGC yielded a binding signal of -0.0495 E-score. Sequence AGCTATTG has a binding signal of -0.077 E-score. ACGTCGAG was tested, and the binding signal was -0.0697 E-score. In the case of ATGGTTCC, the binding signal was -0.0286 E-score. In the case of AGCCTTAT, the binding signal was -0.0399 E-score. Sequence AACTGAAC has a binding signal of -0.0586 E-score. For AATCCAGG, the binding signal was 0.415 E-score. Sequence ATACACAC has a binding signal of -0.00856 E-score. ATGTTATC was tested, and the binding signal was 0.115 E-score. Sequence AAAGGCCG has a binding signal of -0.249 E-score. AGGTCGGG gave a binding signal of -0.24 E-score. AGTCGTGA was tested, and the binding signal was -0.0787 E-score. In the case of ATGCTGGG, the binding signal was -0.169 E-score. In the case of AGTATCCC, the binding signal was 0.0888 E-score. AAGATACT gave a binding signal of 0.283 E-score. AGGGTCCC gave a binding signal of -0.271 E-score. ATCTATGG gave a binding signal of 0.205 E-score. With ACACGCAC the binding signal was -0.0788 E-score. CAACGAGA showed a binding signal of 0.138 E-score. AGTGGTAC showed a binding signal of -0.127 E-score. With AGTCCGTA the binding signal was -0.0531 E-score. Work on AGATAAAA yielded a binding signal of 0.123 E-score. Sequence AGATTAGC has a binding signal of 0.0843 E-score. Sequence ATACCGCC has a binding signal of 0.0728 E-score. AGGCGCAC showed a binding signal of -0.21 E-score. Sequence ACCACGGC has a binding signal of -0.295 E-score. Work on ATCTATTC yielded a binding signal of 0.283 E-score. For AGTCTGGC, the binding signal was -0.278 E-score. ACACATGA gave a binding signal of 0.0829 E-score. CACCCTGG was tested, and the binding signal was -0.209 E-score. Sequence AGAGTGCC has a binding signal of -0.209 E-score. In the case of AGTAGGGC, the binding signal was -0.253 E-score. CACACTCA gave a binding signal of 0.0601 E-score. ATAGGACA showed a binding signal of -0.0762 E-score. For ACTGGGGC, the binding signal was -0.157 E-score. ATAGCCAC gave a binding signal of 5.52e-05 E-score. AGGTGTAT was tested, and the binding signal was 0.069 E-score. Work on AGTTCGAG yielded a binding signal of 0.041 E-score. For AGCCCTCC, the binding signal was -0.313 E-score. For ATAGATGA, the binding signal was 0.057 E-score. Work on AGATCCAT yielded a binding signal of 0.195 E-score. With AGGGTAGA the binding signal was -0.0101 E-score. For AGACACTG, the binding signal was -0.0337 E-score. With CAGCCTTC the binding signal was -0.276 E-score. AAAGTGAT gave a binding signal of 0.217 E-score. Sequence ACGTCTGC has a binding signal of -0.172 E-score. AGGCATAC gave a binding signal of -0.0786 E-score. Work on ACGCTGAG yielded a binding signal of 0.0237 E-score. In the case of AACAGGCA, the binding signal was -0.0499 E-score. With ATATCAGC the binding signal was 0.268 E-score. ATATCATC gave a binding signal of 0.311 E-score. For AGCCCGGA, the binding signal was -0.203 E-score. Work on AAGGATTA yielded a binding signal of 0.278 E-score. ATATCATG gave a binding signal of 0.373 E-score. CACGTGCC showed a binding signal of -0.0897 E-score. For AAATACAT, the binding signal was 0.148 E-score. With AAAGTAAC the binding signal was -0.0535 E-score. For AGCTAGGA, the binding signal was 0.0562 E-score. AGAATTCT was tested, and the binding signal was 0.299 E-score. Work on AACTTGGG yielded a binding signal of -0.23 E-score. In the case of ATATAAAT, the binding signal was 0.276 E-score. For ATTAAATA, the binding signal was 0.111 E-score. With AGATAGGC the binding signal was -0.000114 E-score. Work on ATGTTCGC yielded a binding signal of -0.207 E-score. For ACAGTTAC, the binding signal was -0.0164 E-score. In the case of ACGTCGCT, the binding signal was -0.0903 E-score. Sequence ATTCATGC has a binding signal of 0.0644 E-score. Sequence AACCCTAA has a binding signal of -0.114 E-score. CAGCCGAG gave a binding signal of -0.083 E-score. Work on ACGCATTA yielded a binding signal of 0.0439 E-score. AATAGCGA gave a binding signal of 0.0762 E-score. AGTGTCTA showed a binding signal of -0.0647 E-score. Sequence AGAAATTA has a binding signal of 0.17 E-score. AGGCGTAT gave a binding signal of 0.101 E-score. ATACAGCA showed a binding signal of 0.0291 E-score. AGAACGCC gave a binding signal of -0.229 E-score. For ACCCAAAC, the binding signal was 0.0447 E-score. ATGCCCAT was tested, and the binding signal was -0.0242 E-score. AGTCGAAG gave a binding signal of -0.123 E-score. For AACGTCGC, the binding signal was -0.0232 E-score. ATTGATTA gave a binding signal of 0.145 E-score. With AAACATCT the binding signal was -0.0426 E-score. AAATGACT showed a binding signal of -0.0301 E-score. ATATAAAG was tested, and the binding signal was 0.107 E-score. For ATGAACCA, the binding signal was -0.0258 E-score. ATTATGAC was tested, and the binding signal was 0.12 E-score. AGCAGTTA gave a binding signal of -0.0416 E-score. Work on ATCAGTAC yielded a binding signal of 0.189 E-score. In the case of ACGCCTGA, the binding signal was -0.0157 E-score. ATCCCGCG showed a binding signal of 0.151 E-score. Work on ACCCACTG yielded a binding signal of -0.222 E-score. In the case of CACATCCC, the binding signal was -0.0296 E-score. Work on ATCCAGAG yielded a binding signal of 0.168 E-score. Work on AACGATGG yielded a binding signal of 0.0149 E-score. Work on ATCGGGAG yielded a binding signal of 0.119 E-score. In the case of ATCAGTGC, the binding signal was 0.107 E-score. AGCCTTTG was tested, and the binding signal was -0.315 E-score. With ATGTTAAA the binding signal was 0.151 E-score. For ATAACATA, the binding signal was 0.073 E-score. ATATGGTG showed a binding signal of 0.189 E-score. Sequence AAATACCG has a binding signal of 0.15 E-score. Sequence CAACGGGC has a binding signal of -0.22 E-score. Work on AAGGGTGA yielded a binding signal of -0.146 E-score. AAAGCAAA gave a binding signal of 0.0674 E-score. Sequence AATTGTTA has a binding signal of 0.154 E-score. In the case of ACAGACTG, the binding signal was -0.264 E-score. For AACCCTTA, the binding signal was -0.215 E-score. AAAATGAA was tested, and the binding signal was 0.153 E-score. In the case of AGATTTAT, the binding signal was 0.261 E-score. For ACAATAAG, the binding signal was 0.0285 E-score. Work on CAGCGAGA yielded a binding signal of 0.00393 E-score. ATTGTGGA showed a binding signal of 0.202 E-score. In the case of ATCTTAAA, the binding signal was 0.272 E-score. ATTAAAAA was tested, and the binding signal was 0.0739 E-score. Sequence ATCTGGTC has a binding signal of 0.262 E-score. CAACACCC was tested, and the binding signal was -0.264 E-score. With AAAAGGAC the binding signal was -0.107 E-score. ACGGTCTG showed a binding signal of -0.135 E-score. In the case of AACGTCTT, the binding signal was -0.0984 E-score. For ATAGCTGC, the binding signal was -0.039 E-score. ATGCTACA showed a binding signal of -0.00326 E-score. ACATGTGG was tested, and the binding signal was -0.225 E-score. Sequence CAATAGAC has a binding signal of -0.0684 E-score. AGGCCAAG gave a binding signal of -0.141 E-score. Work on AGCATAAA yielded a binding signal of -0.0921 E-score. Sequence ATGTCCGG has a binding signal of -0.0686 E-score. Work on ACCTGGAA yielded a binding signal of -0.105 E-score. In the case of ATTGTGTG, the binding signal was 0.203 E-score. Work on AGTCAAAT yielded a binding signal of 0.0613 E-score. In the case of ATATACTA, the binding signal was 0.155 E-score. AAATCTCA was tested, and the binding signal was 0.444 E-score. In the case of AAAAGGCT, the binding signal was -0.177 E-score. For AAAATAAA, the binding signal was 0.218 E-score.

From article PMC5836133
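Note: rank-based score ranging −0.5 to +0.5 with E above 0.45 taken as significant binding.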
